Experimental data published in publication PMC12040169 (PLOS Biology, 2025).
This is one part of the list.

Tested on: T1, C. trachomatis L2/434/Bu expressing GFP (CTL2-GFP)
T1 construct: L2/434/Bu GFP intracellular growth in HeLa cells
Parameters: species or system HeLa; C. trachomatis total inclusion area by high-content imaging, normalised to DMSO
Settings: total inclusion area; 28.5 h, 10 µM; inhibitor
Procedure, shortened: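 High-content images of fixed, Hoechst-stained infected cultures supply inclusion area and count (growth) plus nuclei number (viability), complementing bulk GFP/resorufin fluorescence. MIC determination is unchanged from the primary assay.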

Compound | % of control remaining
Cc1nn(C(C)CC(=O)NCC2CCN(C(C)C)CC2)c(C)c1C (centres unmarked) [CBK282703] | 91.6531
Cn1c(C2CC2)nc2c1CCN(Cc1cc(=O)n(C)c(=O)n1C)C2 [CBK304025] | 51.2637
CC1CCc2c(sc3nc(CN4CCCCC4C)[nH]c(=O)c23)C1 (centres unmarked) [CBK304975] | 80.7661
COc1cc(NC(=O)Cn2c(-c3cncs3)nc3ccccc32)cc(OC)c1OC [CBK267640] | 92.7721
CC(C(=O)N1CCCCC1)n1sc2ccccc2c1=O (centres unmarked) [CBK116322] | 90.1788
O=C(O)CCC(=O)CCC(=O)c1ccc(F)cc1 [CBK287191] | 93.5863
CN1CCC(N(C)C(=O)NCc2cccnc2)C1 (centres unmarked) [CBK156001] | 94.4918
COc1cccc(CN2CC[C@H]3[C@@H](C2)[C@H](c2ccsc2)CN3C(=O)c2ccccc2)c1 [CBK285616] | 105.468
Nc1ncnc(NCCc2ccc(S(N)(=O)=O)cc2)c1[N+](=O)[O-] [CBK267320] | 97.324
O=C(O)c1cccc(OCc2nnnn2-c2ccc(Br)cc2)c1 [CBK286744] | 110.479
CCOc1cc(NC2CCN(C(=O)C3CCCC(C)(C)C3)CC2)ncn1 (centres unmarked) [CBK305547] | 32.583
Cc1ccc(S(=O)(=O)NC(=O)N2CCCC2)cc1 [CBK001984] | 83.805
CCc1nc(C)ccc1OCC(O)CNC(C)(C)C (centres unmarked) [CBK019698] | 100.244
COc1ccc(OCC(O)Cn2c(CCCO)nc3ccccc32)cc1 (centres unmarked) [CBK305579] | 34.5343
CC1CN(Cc2nc3c(c(=O)[nH]c(=O)n3C)n2CCc2ccccc2)CC(C)O1 (centres unmarked) [CBK269876] | 97.6966
COc1cccc(CCOc2cncc(Cl)n2)c1 [CBK113556] | 32.1698
Cc1cc(O)nc(SCC(=O)Nc2cc([N+](=O)[O-])ccc2C)n1 [CBK267488] | 87.1166
Cc1n[nH]c(C)c1CNC(=O)C1(c2ccccc2F)CC1 [CBK283156] | 122.125
CN(CCOc1ccccc1)c1cc(C2CC(N)C2)nc(N)n1 (centres unmarked) [CBK306849] | 28.8976
CCCNC(=O)Cn1nc(C)n2c(cc3sc(C)cc32)c1=O [CBK284068] | 97.4353
O=C1CCC(=O)N1CCOc1nccnc1OC1CCN(CCCn2c(=O)[nH]c3ccccc32)CC1 [CBK084350] | 91.6155
Cc1ccc(C(=O)C(C)OC(=O)c2ccc(NC(=O)c3ccccc3)cc2)cc1 (centres unmarked) [CBK264302] | 122.012
O=C(CSc1nnc(-c2ccncc2)[nH]1)c1ccc(O)cc1O [CBK264353] | 110.535
Cc1n[nH]c(NN)c1Cl [CBK260876C] | 98.3174
CC(C)(C)NS(=O)(=O)c1ccccc1[N+](=O)[O-] [CBK260932] | 78.1788
FC(F)(F)c1cccc(CSc2cc(N3CCCC3)ncn2)c1 [CBK107184] | 90.9202
C=CCNc1nccnc1-c1ccc(O)cc1 [CBK036898] | 149.519

Compound | % of control remaining
O=C(CC1CCCC1)N1CCCC(c2cc3cccnc3[nH]2)C1 (centres unmarked) [CBK284940] | 80.5215
CC(C)CNc1nc(SCC(N)=O)nc(N(C)C)n1 [CBK269579] | 95.8138
O=C(Nc1nnc[nH]1)c1ccccc1CCc1ccccc1 [CBK268616] | 112.138
Cc1cc(-c2nnc3n2N=C(c2ccccc2)CS3)n[nH]1 [CBK287944] | 132.119
CC1CCCC(C)N1C(=O)Cn1c(=O)n(C)c2ncccc21 (centres unmarked) [CBK282389] | 86.6255
O=c1[nH]c2ccccc2cc1CNc1ccc(F)cc1F [CBK281933] | 98.7144
OC1(c2cccnc2F)CCN(Cc2cc(F)cc(F)c2)CC1 [CBK285375] | 79.9356
COc1ncc(-c2cnc(N)c(-c3cccc(N(C)C)c3)n2)c(OC)n1 [CBK064017] | 133.415
O=C1NC2(CC3CCC2CC3C(=O)NC2CC2)Oc2ccccc21 (centres unmarked) [CBK284352] | 77.4831
CN(C)c1ccc(-c2nc(-c3cccc(OC(F)(F)F)c3)cnc2N)cc1 [CBK063942] | 123.507
O=C(O)c1ccc(S(=O)(=O)c2ccc3c(c2)C(=O)N(c2cc(C(=O)O)cc(C(=O)O)c2)C3=O)cc1 [CBK262824] | 108.148
O=C(Nc1ccc(O)cc1C(=O)O)c1ccc2c(c1)C(=O)N(Cc1ccccc1)C2=O [CBK266540] | 99.2671
Nc1ccc(-c2cn3ccnc3c(NCc3ccccc3)n2)cc1 [CBK066592] | 85.1934
Cc1cc(/C=C(/C#N)c2nc3ccccc3[nH]2)c(C)n1-c1ccc(N2CCOCC2)cc1 [CBK263792] | 95.7675
O=C(O)/C=C\C(=O)Nc1ccc(Cl)c(NC(=O)Cc2ccccc2)c1 [CBK263955] | 107.295
COc1ccc(-c2ccc(N3CCN(CCN(C)C)CC3)nc2)cc1OC [CBK036818] | 118.682
Cn1ncc2c1CCCN(C(=O)COc1ccc(C(C)(C)C)cc1)C2 [CBK285286] | 98.6154
Cc1ccccc1NS(=O)(=O)c1ccc(OCC(=O)N2CCN(c3cc(Cl)ccc3C)CC2)cc1 [CBK267649] | 113.25
COc1ccc(CCNS(=O)(=O)c2ccc(C3CNC(=O)C3)cc2)cc1OC (centres unmarked) [CBK268352] | 96.8376
CCCCNc1cc(N2CCN(c3cnn(C)c3)C(=O)C2)nc(N)n1 [CBK306260] | 37.5654
COc1cnc(-c2ccccc2)c(NC(C)=O)n1 [CBK145410] | 92.7152
O=C(O)CCN1CCN(Cc2ccc(Cl)cc2)CC1 [CBK287271] | 99.6033
Brc1ccc2nc3c(nc2c1)Nc1nonc1N3 [CBK262414] | 60.9164
CN(C)c1ccccc1-c1cnc(N2CCOCC2)c2nccn12 [CBK091280] | 109.381
C/C(=N\NC(=O)c1ccccc1I)c1cccc(N)c1 [CBK260935] | 90.2678
O=C(CC1CCCC1)N1CCC(c2cc(CCOc3cccc(C(F)(F)F)c3)[nH]n2)C1 (centres unmarked) [CBK286267] | 90.8791
COc1ccc(CNC(=O)CSc2nnc(-c3ccncc3)n2C)cc1 [CBK266613] | 116.488

Compound | % of control remaining
O=C(Nc1ccc(Cl)c(S(=O)(=O)N2CCCC2)c1)c1cnccn1 [CBK295176] | 123.284
O=C(O)c1cc(NS(=O)(=O)c2ccc(N3CCCCC3)c([N+](=O)[O-])c2)cc(C(=O)O)c1 [CBK263876] | 78.9028
N=C(N/N=C\c1ccncc1)N/N=C\c1ccncc1 [CBK263278C] | 99.1
COCCn1c(SCc2cn3c(C)cccc3n2)nc(C)c1C [CBK304050] | 100.026
CCOC(=O)c1c(NC(=O)c2nc3ncccn3n2)sc(C)c1C [CBK267630] | 114.263
O=C(CN1CCN(c2ccc(C(F)(F)F)cn2)CC1)c1ccccc1 [CBK074699] | 56.204
CN(C)CCN(C)c1cccc(-c2cccc(OC(F)(F)F)c2)n1 [CBK037020] | 125.172
Cc1cn2cccc(C(=O)N3CCCCC3CCN3CCOCC3)c2n1 (centres unmarked) [CBK306518] | 73.9752
Cc1noc(C)c1C(=O)N1CC[C@H]2NC(=O)c3ccccc3OCC/C=C/C[C@H]2C1 [CBK291994] | 79.8062
O=C(CNC(=O)C1CCCCC1)NNC(=O)c1sc2ccccc2c1Cl [CBK267903] | 114.864
CCc1ccc(OCC(=O)Nc2cccnc2)cc1 [CBK264658] | 114.216
Cn1c(=O)n(C)c2cc(S(=O)(=O)ON3C(=O)c4cccc5cc([N+](=O)[O-])cc(c45)C3=O)ccc21 [CBK267566] | 101.416
COc1cccc2c1OC(c1cccnc1)N1N=C(c3cccc(O)c3)CC21 (centres unmarked) [CBK287747] | 78.2501
Cc1ccc2nc(Cl)c(/C=N/NC(=O)CN3CCOCC3)cc2c1 [CBK262731] | 73.8354
Cc1nc(CNC(=O)NC2CCCN(c3ccn(C)n3)C2=O)c(C)s1 (centres unmarked) [CBK305926] | 53.4391
Cc1ccc(CNC(=O)Cn2nnc(-c3ccc(CN4CCC(S(C)(=O)=O)C4)cc3)n2)cc1 (centres unmarked) [CBK155407T] | 83.6275
O=C(O)c1ccc(C2(c3ccc(C(=O)O)cc3)OC(=O)c3ccccc32)cc1 [CBK261150] | 89.1321
Cn1cnnc1Sc1cc(N2CCN(S(=O)(=O)c3ccc(Cl)c(Cl)c3)CC2)ccc1[N+](=O)[O-] [CBK266618] | 103.211
O=C1N(Cc2ccc(Br)cc2)CCc2cncn21 [CBK021187] | 94.454
N#Cc1c(Cl)cccc1Oc1ccc(S(=O)(=O)Nc2cccc(C(=O)O)c2)cc1 [CBK155718] | 94.0721
O=C(Cn1ccc2ccnc(-c3cccs3)c21)NCc1ccccn1 [CBK284735] | 106.051
O=C(Nc1cncc(N2CCNCC2)n1)c1coc2c1C(=O)CCC2 [CBK004229T] | 97.629
CN(Cc1ccccc1)C(=O)CCNS(=O)(=O)c1ccccc1 [CBK268585] | 100.402
Cc1ccc(C(=O)N2CCN(CC(=O)N3CCCC3)CC2)cc1 [CBK039096] | 39.0128
Cc1nc2ccccc2c(O)c1CN1CCN(C)CC1 [CBK027922] | 66.3986
O=C(COc1ccc(S(=O)(=O)N2CCCCC2)cc1)N1CCN(Cc2ccccc2)CC1 [CBK269144] | 106.798
